Source: the supplement of paper PMC10320760
The data scatter; read single values as rough.

B1: Ydj1; a variant is named by its letters at X, in order (parent)
chain: MVKETKFYDILGVPVTATDVEIKKAYRKCALKYHPDKNPSEEAAEKFKEASAAYEILSDPEKRDIYDQFGEDGLSGAGGAGGFPGGGFGFGDDIFSQFFGAGGAQRPRGPQRGKDIKHEISASLEELYKGRTAKLALNKQILCKECEGRGGKKGAVKKCTSCNGQGIKFVTRQMGPMIQRFQTECDVCHGTGDIIDPKDRCKSCNGKKVENERKILEVHVEPGMKDGQRIVFKGEADQAPDVIPGDVVFIVSERPHKSFKRDGDDLVYEAEIDLLTAIAGGEFALEHVSGDWLKVGIVPGEVIAPGMRKVIEGKGMPIPKYGGYGNLIIKFTIKFPENHFTSEENLKKLEEILPPRIVPAIPKKATVDECVLADFDPAKYNRTRASRGGANYDSDEEEQGGEGVQCXXX

Variants of: B1
Test: enrichment factor, frequency at 37 °C / frequency at 25 °C (thermotolerance selection) (ratio); higher = more growth at 37 °C, higher likelihood of farnesylation
Conditions: with Saccharomyces cerevisiae ydj1Δ (yWS304); selective temperature 37 °C; reference temperature 25 °C
Procedure: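 Pooled library of all 8,000 Ydj1-CXXX C-terminal motif variants (native CASQ replaced by C + three variable residues, one codon per amino acid) expressed from a CEN plasmid in S. cerevisiae ydj1Δ (yWS304). The library was grown in SC-Ura liquid to A600 ~2 (~8 generations) at permissive 25 °C or selective 37 °C. Reads from 8 and 7 replicates were pooled and variants counted by NGS. Enrichment factor = frequency at 37 °C / frequency at 25 °C, with a +1 correction; it reports Ydj1-dependent thermotolerance, used as a read-out of farnesylation by yeast FTase.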

| Variant | enrichment factor |
| --- | --- |
| WEH | 0.899 |
| YEH | 0.144 |
| DEH | 0.152 |
| EEI | 0.191 |
| FEI | 1.3 |
| GEI | 0.192 |
| HEI | 0.454 |
| IEI | 0.18 |
| KEI | 0.201 |
| LEI | 0.273 |
| MEI | 0.167 |
| NEI | 0.121 |
| CEI | 0.757 |
| PEI | 0.124 |
| QEI | 0.17 |
| REI | 0.141 |
| SEI | 0.141 |
| TEI | 0.251 |
| VEI | 0.479 |
| AEI | 0.459 |
| WEI | 2.07 |
| YEI | 0.365 |
| DEI | 0.255 |
| EEK | 0.16 |

| Variant | enrichment factor |
| --- | --- |
| FEK | 0.0952 |
| GEK | 0.162 |
| HEK | 0.141 |
| IEK | 0.151 |
| KEK | 0.273 |
| LEK | 0.109 |
| MEK | 0.108 |
| NEK | 0.222 |
| CEK | 0.133 |
| PEK | 0.0991 |
| QEK | 0.0984 |
| REK | 0.0592 |
| SEK | 0.112 |
| TEK | 0.137 |
| VEK | 0.201 |
| AEK | 0.205 |
| WEK | 0.336 |
| YEK | 0.175 |
| DEK | 0.165 |
| EEL | 0.129 |
| FEL | 0.48 |
| GEL | 0.27 |
| HEL | 0.179 |
| IEL | 0.0943 |

| Variant | enrichment factor |
| --- | --- |
| KEL | 0.211 |
| LEL | 0.158 |
| MEL | 0.165 |
| NEL | 0.382 |
| CEL | 0.957 |
| PEL | 0.192 |
| QEL | 0.182 |
| REL | 0.219 |
| SEL | 0.165 |
| TEL | 0.17 |
| VEL | 0.338 |
| AEL | 0.223 |
| WEL | 1.73 |
| YEL | 0.363 |
| DEL | 0.158 |
| EEM | 1.29 |
| FEM | 1.26 |
| GEM | 1.25 |
| HEM | 2.31 |
| IEM | 1.26 |
| KEM | 1.77 |
| LEM | 1.59 |
| MEM | 1.97 |
| NEM | 1.9 |

| Variant | enrichment factor |
| --- | --- |
| CEM | 1.68 |
| PEM | 1.77 |
| QEM | 2.09 |
| REM | 1.28 |
| SEM | 2.06 |
| TEM | 1.67 |
| VEM | 2 |
| AEM | 1.61 |
| WEM | 1.29 |
| YEM | 1.89 |
| DEM | 0.2 |
| EEN | 0.222 |
| FEN | 0.752 |
| GEN | 0.0983 |
| HEN | 0.291 |
| IEN | 0.308 |
| KEN | 0.153 |
| LEN | 0.446 |
| MEN | 0.291 |
| NEN | 0.127 |
| CEN | 0.817 |
| PEN | 0.197 |
| QEN | 0.204 |
| REN | 0.124 |

| Variant | enrichment factor |
| --- | --- |
| SEN | 0.134 |
| TEN | 0.303 |
| VEN | 1.07 |
| WEN | 1.16 |
| AEN | 0.561 |
| YEN | 0.11 |
| DEN | 0.16 |
| EEP | 0.132 |
| FEP | 1.29 |
| GEP | 0.149 |
| HEP | 0.228 |
| IEP | 0.167 |
| KEP | 0.203 |
| LEP | 0.119 |
| MEP | 0.096 |
| NEP | 0.152 |
| CEP | 0.27 |
| PEP | 0.227 |
| QEP | 0.139 |
| REP | 0.134 |
| SEP | 0.156 |
| TEP | 0.215 |
| VEP | 0.0879 |
| WEP | 1.42 |

| Variant | enrichment factor |
| --- | --- |
| AEP | 0.0991 |
| YEP | 0.211 |
| DEP | 0.106 |
| EEQ | 1.42 |
| FEQ | 2.01 |
| GEQ | 1.47 |
| HEQ | 1.59 |
| IEQ | 0.867 |
| KEQ | 1.5 |
| LEQ | 1.38 |
| MEQ | 1.67 |
| NEQ | 1.69 |
| CEQ | 1.61 |
| PEQ | 1.91 |
| QEQ | 1.55 |
| REQ | 1.1 |
| SEQ | 1.29 |
| TEQ | 1.5 |
| VEQ | 1.37 |
| WEQ | 1.9 |
| AEQ | 1.66 |
| YEQ | 2.23 |
| DEQ | 0.312 |
| EER | 0.228 |

| Variant | enrichment factor |
| --- | --- |
| FER | 0.14 |
| GER | 0.24 |
| HER | 0.159 |
| IER | 0.128 |
| KER | 0.143 |
| LER | 0.0959 |
| MER | 0.135 |
| NER | 0.157 |
| CER | 0.193 |
| PER | 0.107 |
| QER | 0.129 |
| RER | 0.161 |
| SER | 0.0677 |
| TER | 0.11 |
| VER | 0.163 |
| WER | 0.238 |
| AER | 0.105 |
| YER | 0.218 |
| DER | 0.254 |
| EES | 0.296 |
| FES | 0.845 |
| GES | 0.157 |
| HES | 0.918 |
